This note sets out measurements from paper PMC6919601, “Identification of Plasmodium dipeptidyl aminopeptidase allosteric inhibitors by high throughput screening” (PLoS ONE, 2019).

The whole screen tested about 110,000 compounds, of which about 230 (0.21%) showed an effect of 50% or more. Some of the results follow.
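Also: 30 min substrate incubation versus DMSO and 10 µM JCP410 controls.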

The experiment deals with DPAP1 (Plasmodium falciparum, UniProt Q8IIJ9). Put plainly: primary screen, percent inhibition; read by cleavage of a fluorogenic dipeptide substrate; higher = more effect of the substance. More on the design: species or system P. falciparum D10 trophozoite lysates; single well.
Sequence of DPAP1 (Q8IIJ9 whole entry, looked up): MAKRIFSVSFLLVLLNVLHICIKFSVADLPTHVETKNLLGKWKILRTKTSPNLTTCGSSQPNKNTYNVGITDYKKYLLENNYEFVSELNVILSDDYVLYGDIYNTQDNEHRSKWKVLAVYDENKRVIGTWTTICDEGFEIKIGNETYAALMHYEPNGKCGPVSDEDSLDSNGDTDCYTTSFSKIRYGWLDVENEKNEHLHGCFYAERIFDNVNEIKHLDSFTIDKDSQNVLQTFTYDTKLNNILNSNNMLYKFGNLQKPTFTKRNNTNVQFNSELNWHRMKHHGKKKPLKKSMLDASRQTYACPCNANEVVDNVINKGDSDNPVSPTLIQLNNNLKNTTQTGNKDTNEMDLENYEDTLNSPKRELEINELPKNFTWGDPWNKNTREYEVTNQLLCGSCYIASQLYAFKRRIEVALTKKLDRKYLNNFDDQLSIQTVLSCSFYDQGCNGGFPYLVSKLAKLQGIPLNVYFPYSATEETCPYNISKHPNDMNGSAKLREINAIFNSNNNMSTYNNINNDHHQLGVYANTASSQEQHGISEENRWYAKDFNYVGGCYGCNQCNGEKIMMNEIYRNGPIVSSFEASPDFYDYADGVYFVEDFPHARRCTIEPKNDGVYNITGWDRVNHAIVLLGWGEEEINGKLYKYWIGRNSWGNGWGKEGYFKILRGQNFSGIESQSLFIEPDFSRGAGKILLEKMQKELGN
With `COc1ccc(-c2nc(-c3cccc(OC)c3)nc3ccc4ccccc4c23)cc1`, the “% Inhibition @ 10 uM” value is 5.64%.

Consider `CCCCCCNC(=O)Cc1nc2nc(C)cc(C)n2n1`, for which the “% Inhibition @ 10 uM” value stood at 1.27%.

For `CC(C)CSc1nc(N2CCOCC2)c2c(c1C#N)CCCC2`, the “% Inhibition @ 10 uM” value is -5.48%.

Take `Nc1nc(N)nc(C(c2ccccc2)c2ccccc2)n1`: the “% Inhibition @ 10 uM” value is -2.42%.

For the compound `CCC(=O)C1=C(Nc2cccc3ccccc23)CC(C)(C)CC1=O`, the “% Inhibition @ 10 uM” value was -1.64%.

As for `C/C(=C\C(=O)NCC(C)c1ccccc1)c1ccccc1` (centres unmarked), the “% Inhibition @ 10 uM” value came to 0.986%.

Consider `CN(CC(=O)NCCN1CCC(Cc2ccccc2)CC1)S(=O)(=O)c1cccc2nsnc12`, for which the “% Inhibition @ 10 uM” value was 0.317%.

For `CC(C)NC(=O)c1cc(-c2ccc(Cl)cc2)on1`, the “% Inhibition @ 10 uM” value is listed as -2.65%.

As to `CCOC(=O)c1c(N)sc2c(O)c(Br)ccc12`, the “% Inhibition @ 10 uM” value is reported as -4.3%.

For the compound `COc1ccc2cc(CN(Cc3ccco3)S(=O)(=O)c3ccc(C(C)=O)cc3)c(O)nc2c1`, the “% Inhibition @ 10 uM” value was -2.84%.

With `CCCCN(CCCNC(=O)c1ccc2nc(N3CCOCC3)sc2c1)Cc1ccccc1`, the “% Inhibition @ 10 uM” value was determined as 3.3%.

For `COc1ccc(-n2c(Cc3cccn3C)nnc2SCC(=O)Nc2nnc(C)s2)cc1`, the “% Inhibition @ 10 uM” value is on record as -7.89%.

Take `O=[N+]([O-])c1ccc(N2CCN(Cc3ccc(Br)s3)CC2)cc1`: the “% Inhibition @ 10 uM” value is listed as 1.48%.

With `NS(=O)(=O)c1ccc(CCNC(=O)c2ccccc2Cl)cc1`, the “% Inhibition @ 10 uM” value was -6.6%.

As to `CC1CNC2=C(C(=O)Nc3cccc4ccccc34)C(=O)CC(c3ccc4c(c3)OCO4)N21` (centres unmarked), the “% Inhibition @ 10 uM” value is given as 0.658%.

With `CCOC12NC(=O)CC(=O)N1C(c1ccccc1)=CS2` (centres unmarked), the “% Inhibition @ 10 uM” value is recorded as 10.4%.

In the case of `CC(=O)c1cc(-c2ccccc2)n(CCC(=O)NC2CCCc3ccccc32)c1C` (centres unmarked), the “% Inhibition @ 10 uM” value amounted to 3.07%.

Take `Cc1ccc(OC(C)C(=O)Nc2nccs2)cc1` (centres unmarked): the “% Inhibition @ 10 uM” value is given as -2.76%.

As to `CCN(Cc1ccccc1)Cc1ccncc1`, the “% Inhibition @ 10 uM” value was -2.02%.

In the case of `CN(C)C(C#N)c1cn(C)c2ccccc12` (centres unmarked), the “% Inhibition @ 10 uM” value amounted to 1.67%.

On to `O=[N+]([O-])c1ccc(CS(=O)(=O)Nc2ccccc2Cl)cc1`, for which the “% Inhibition @ 10 uM” value was -12.4%.

Regarding `COc1cc(C(=O)Nc2cccc(-c3nc4ccccc4[nH]3)c2)cc(OC)c1OC`, the “% Inhibition @ 10 uM” value is recorded as -1.28%.

Turning to `O=S(=O)(c1ccccc1)N1C2C=CC(C2)C1(C(F)(F)F)C(F)(F)Cl` (centres unmarked), the “% Inhibition @ 10 uM” value amounted to 2.19%.

In the case of `CSc1nc(N)c2c3c(sc2n1)CN(Cc1ccccc1)CC3`, the “% Inhibition @ 10 uM” value is -1.66%.

With `O=C1c2ccccc2C(=O)N1CCn1c2ccc(Cl)cc2c2nc3ccccc3nc21`, the “% Inhibition @ 10 uM” value is listed as -1.52%.

As for `CCC(=O)/C=C1\Sc2ccc(OC)cc2N1CCO`, the “% Inhibition @ 10 uM” value is recorded as 2.38%.

On to `CCCc1[nH]nc2c1C(c1ccc(C)o1)C(C#N)=C(N)O2` (centres unmarked), for which the “% Inhibition @ 10 uM” value turned out to be 0.751%.

As to `Cc1ccc(C2CC(C(F)(F)F)n3ncc(C(=O)N(C)C4CCCCC4)c3N2)cc1` (centres unmarked), the “% Inhibition @ 10 uM” value turned out to be 6.42%.

On to `CCOc1ccc(NC(=O)CN2C(=O)S/C(=C/c3cc(C)n(-c4cccnc4)c3C)C2=O)cc1`, for which the “% Inhibition @ 10 uM” value is recorded as -0.088%.

In the case of `CC(C)C1C(=O)NC(=S)N(c2ccccc2)C1=O` (centres unmarked), the “% Inhibition @ 10 uM” value worked out at 1.42%.

In the case of `CC1=C(C)OC(C)(C(=O)/C=C/c2ccccc2)CC1` (centres unmarked), the “% Inhibition @ 10 uM” value is on record as -0.239%.

For `CCc1nn(C(C)C(=O)N2CCc3ccccc3C2)c(=O)c2cc3occc3n12` (centres unmarked), the “% Inhibition @ 10 uM” value amounted to 1.38%.

In the case of `CC(=O)NC1(c2ccccc2)CC(C)N(C)CC1C` (centres unmarked), the “% Inhibition @ 10 uM” value was -2.51%.

On to `Cc1onc(-c2ccccc2Cl)c1C(=O)N1CCN(c2cccc(Cl)c2)CC1`, for which the “% Inhibition @ 10 uM” value is -3.35%.

As to `Cc1nn(CCCC(=O)NCc2ccc(Cl)cc2)c(=O)c2cc3sccc3n12`, the “% Inhibition @ 10 uM” value was determined as 4.95%.

On to `O=C1NC(=O)N(Cc2ccccc2)C(=O)/C1=C\c1c[nH]c2ccccc12`, for which the “% Inhibition @ 10 uM” value amounted to 5.3%.

For `COc1ccc(NC(=O)c2cc(OC)c(OC)c(OC)c2)cc1`, the “% Inhibition @ 10 uM” value stood at 6.69%.

As for `Cc1cccc2sc(NC(=O)c3ccccc3C(=O)O)nc12`, the “% Inhibition @ 10 uM” value is on record as 6.12%.

For `CCCNC(=O)Cc1c(C)nc2c(-c3ccc(F)cc3)c(C)nn2c1C`, the “% Inhibition @ 10 uM” value was -4.24%.

For the compound `CCc1ccc(-c2nc(CN3CCC(C(=O)O)CC3)c(C)o2)cc1`, the “% Inhibition @ 10 uM” value is listed as 1.42%.

As for `CCOc1cc(CNC(=O)c2ccc3nc(CC)c(CC)nc3c2)cc(OCC)c1OCC`, the “% Inhibition @ 10 uM” value is recorded as -7.2%.

Consider `Cc1cccc(NC(=O)COc2ccc3ccccc3c2)c1`, for which the “% Inhibition @ 10 uM” value is recorded as -5.67%.

Turning to `COc1ccccc1/C=C/C1=NC(=C\c2ccc3c(c2)OCO3)/C(=O)O1`, the “% Inhibition @ 10 uM” value was determined as 0.997%.

As for `Cc1ccc2c(Cl)c(C(=O)O)sc2c1`, the “% Inhibition @ 10 uM” value was 3.44%.

Consider `COc1ccc(CCNC(=O)C2CCN(S(=O)(=O)c3c(C)noc3C)CC2)cc1OC`, for which the “% Inhibition @ 10 uM” value amounted to 3.59%.

As for `CCc1ccc(OCC(=O)Nc2sc3c(c2C(N)=O)CCCC3)c(Br)c1`, the “% Inhibition @ 10 uM” value is reported as -0.312%.

For the compound `COc1ccccc1CNC(=O)CCCn1ncn2c(cc3occc32)c1=O`, the “% Inhibition @ 10 uM” value is given as -3.79%.

As for `O=C(O)C1CCCCN1Cc1ccccc1` (centres unmarked), the “% Inhibition @ 10 uM” value is reported as -1.25%.

For `CC(O)(c1ccc(Cl)cc1)C(CN1CCCCC1)c1ccccc1` (centres unmarked), the “% Inhibition @ 10 uM” value is listed as 1.67%.

For the compound `CC1=C(C(=O)Nc2ccc(C)cn2)C(c2cnn(C)c2)C2=C(O)CCCC2=N1` (centres unmarked), the “% Inhibition @ 10 uM” value was found to be 2.46%.
